Test results from PubChem BioAssay AID1466 (National Center for Advancing Translational Sciences (NCATS), 2008).
Out of some 200,000 compounds screened, about 10 (0.005%) were called active. Inconclusive results, whose numbers are uncertain, are shown with a selection of clear calls. Calls follow the shape of the dose curve; as a rule, active = well fitted inhibition curve with a large enough effect; inconclusive = small, poorly fitted or top-dose-only effect, or effect the other way, or another doubt; inactive = no such curve, though single readings can be large or run the other way. No potency is given beside an inconclusive call; the fits are too rough.
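For activity change, negative = inhibition in this document: plate controls were uninhibited enzyme wells for no effect and no-enzyme background for full effect.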
Potency is read from the fitted curve at half-maximal effect; tags tell the direction and shape of the fitted curve.

What follows are compounds tested against Lysosomal alpha-glucosidase (Homo sapiens) (UniProt P10253) (assay: qHTS Assay for Inhibitors of Human alpha-Glucosidase as a Potential Chaperone Treatment of Pompe Disease). Conditions: purified human GAA, 4-MU-alpha-glucoside fluorescence; activity change, negative = inhibition: at 76.9 µM (top of the series) unless noted.
Procedure, shortened: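 Activity normalized between no-enzyme (basal) and enzyme-only wells. Conditions: 4 nM human enzyme, 400 uM fluorogenic substrate, citrate/phosphate pH 5.0 with Tween-20, 20 min room temperature, compounds up to 77 uM.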
With `Cc1cc(C)n2nc(C(=O)N/N=C/c3cccs3)nc2n1` the activity change, negative = inhibition was inconclusive: 15.5% [activator]. In the case of `Cc1csc(C(C#N)C(=O)c2ccc(S(=O)(=O)N3CCCC3)cc2)n1` (stereo not given), the Potency is reported as inconclusive [inhibitor, single point]. With `Cc1cc(C)cc(OC(=O)CCN2C(=O)C3C4C=CC(C5CC45)C3C2=O)c1` (stereo not given) the Potency was inconclusive [inhibitor, partial curve]. For `Cc1cc(-c2cccs2)c2c(N)c(C(=O)c3ccc4c(c3)OCO4)sc2n1`, the Potency was inconclusive [inhibitor, single point]. With `COc1ccc(/C=C/C(=O)Nc2ccccc2C(=O)N2CCCC2)cc1` the Potency was inconclusive [inhibitor, single point]. With `O=C(NNC(=S)Nc1ccccc1)c1ccncc1` the activity change, negative = inhibition was inconclusive: 17.6% [activator]. `CC(=O)NC1C(c2nc3ccccc3s2)=C(c2ccccc2)C(=O)N1c1ccc(C)cc1` (stereo not given) was tested, and the activity change, negative = inhibition was inconclusive: -16.1% [inhibitor]. For `CCCn1c(=N)n(CC(=O)c2ccc([N+](=O)[O-])cc2)c2ccccc21`, the Potency was inconclusive [inhibitor, single point]. For `CN(C)C(=O)Cn1c(SCC(=O)NCc2ccc3c(c2)OCO3)nc2ccccc21`, the Potency was inconclusive [inhibitor, partial curve]. In the case of `Cn1c2ccccc2c2c(C(=O)O)cn(C3CCCC3)c(=O)c21`, the Potency is reported as inconclusive [activator, partial curve]. For `CCOC(=O)N1CCN(C(=O)COc2ccc(S(=O)(=O)NCC(C)C)cc2C)CC1`, the activity change, negative = inhibition was inconclusive: -16.9% [inhibitor]. In the case of `N=C1SCC(=O)N1c1ncc(Cc2ccc(F)cc2)s1`, the Potency is reported as inconclusive [activator, full curve, poor fit]. In the case of `CCN(CC)C1=N/C(=C\c2ccc(OC)cc2)C(=O)N1c1ccccc1`, the activity change, negative = inhibition is reported as inconclusive: -16.9% [inhibitor]. `Cc1cc(C)c(C#N)c(SCC(=O)c2cccs2)n1` was tested, and the Potency was inconclusive [inhibitor, partial curve, poor fit]. For `CC(=O)C1=C(O)CC(c2ccccc2)CC1=NCCc1ccccc1` (stereo not given), the Potency was inconclusive [inhibitor, single point]. In the case of `CCC(=O)N1C(C(=O)N2CCCC2)CSC1c1ccc(OC)cc1` (stereo not given), the Potency is reported as inconclusive [inhibitor, single point]. For `Cc1ccc(S(=O)(=O)N(CCC(=O)Nc2ccc(OC(F)(F)F)cc2)c2ccccc2)cc1`, the Potency was inconclusive [inhibitor, partial curve]. With `CSc1nc(-c2ccc(Cl)cc2)nn1C(=O)c1ccccc1` the Potency was inconclusive [inhibitor, single point]. `COc1ccc(C(=O)N2CCN(Cc3cc(OC)c(O)c(OC)c3)CC2)cc1OC` was tested, and the Potency was “inactive”. `Cc1cccc(-n2cc(CN3CCCN(C=O)CC3)c(-c3cccc(F)c3)n2)c1` was tested, and the Potency was inconclusive [inhibitor, single point]. With `COc1ccc(OC)c(/C=C/C(=O)OCC(=O)Nc2ccc(Cl)c(S(=O)(=O)N(C)C)c2)c1` the Potency was inconclusive [activator, single point]. For `Cc1ccccc1Nc1nc(N)nc(COC(=O)c2cccn2C)n1`, the Potency was inconclusive [inhibitor, partial curve, poor fit]. `O=C(CSc1nnnn1Cc1ccccc1)c1ccccc1F` was tested, and the Potency was inconclusive [activator, full curve]. In the case of `O=C(CCc1ccccc1)Nc1ccccc1C(F)(F)F`, the Potency is reported as inconclusive [inhibitor, single point]. With `O=C(NCc1cccs1)c1cc(-c2ccccn2)nc2ccc(Br)cc12` the Potency was inconclusive [activator, full curve, poor fit]. `O=C(COC(=O)c1cc(S(=O)(=O)N2CCOCC2)cs1)c1ccccc1` was tested, and the Potency was inconclusive [inhibitor, single point]. `CC1CCCC/C1=N\NS(=O)(=O)c1ccc(Br)cc1` (stereo not given) was tested, and the Potency was inconclusive [inhibitor, single point]. For `COc1ccc(N2CCN(CC(O)COCc3ccccc3)CC2)cc1` (stereo not given), the activity change, negative = inhibition was inconclusive: 15.4% [activator]. In the case of `O=C(COC(=O)c1ccc(NS(=O)(=O)c2cccs2)cc1O)Nc1nc2ccccc2s1`, the Potency is reported as inconclusive [inhibitor, single point]. In the case of `CCCCNC(=O)CC1SC(=NCC)N(CC)C1=O` (stereo not given), the activity change, negative = inhibition is reported as inconclusive: -15.7% [inhibitor]. `Fc1cccc2sc(Nc3nnc(-c4ccccc4)o3)nc12` was tested, and the Potency was inconclusive [activator, partial curve]. `Cc1ccc(Cl)c(OCCN2CCCC(C)C2)c1` (stereo not given) was tested, and the Potency was inconclusive [inhibitor, partial curve, poor fit]. With `O=C1NC2(CCOc3ccccc32)C(=O)N1CC(=O)N(Cc1ccccc1)C1CCS(=O)(=O)C1` (stereo not given) the Potency was inconclusive [inhibitor, partial curve, poor fit]. `C=CCn1c(C)c(C(C)=O)c(N2CCN(c3ccccc3)CC2)nc1=S` was tested, and the Potency was inconclusive [inhibitor, partial curve, poor fit]. `Cn1c(C(=O)OC(C(=O)NCC2CCCO2)c2cccnc2)cc2sccc21` (stereo not given) was tested, and the Potency was inconclusive [inhibitor, full curve]. `Cc1nc(SCC(=O)NCc2ccco2)[nH]c(=O)c1C` was tested, and the Potency was inconclusive [inhibitor, single point]. In the case of `O=C(C[n+]1ccccc1)Nc1ccc(Oc2ccccc2)cc1`, the activity change, negative = inhibition is reported as inconclusive: 12.1% [activator]. With `CCCOc1nc2ccccc2cc1/C=C/C(=O)O` the Potency was inconclusive [activator, partial curve]. `Nc1c(S(=O)(=O)c2ccccc2)c2nc3ccccc3nc2n1Cc1ccco1` was tested, and the Potency was inconclusive [activator, partial curve]. `CC1CCCCN1CCNC(=O)C1CC(=O)N(c2ccc(F)c(Cl)c2)C1` (stereo not given) was tested, and the Potency was inconclusive [inhibitor, single point].
